# Measurements as given in PubChem BioAssay AID1240 (Sanford-Burnham Center for Chemical Genomics, 2008).
# In all, about 50,000 compounds went through this assay and about 800 (1.6%) showed an effect of 50% or more. The list shows a part of the results.
# Target: Bcl-2-like protein 10 (Homo sapiens) (UniProt Q9HD36)
# Experiment: Phenotype converters, Bcl-B/TR3 peptide binding displacement, primary biochemical FP (AID 1240);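 also: 0% = Bcl-B with tracer peptide and DMSO and 100% = tracer peptide lacking Bcl-B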
# Conditions: GST-Bcl-B / FITC-TR3 peptide fluorescence polarization; stronger effect = higher value; compound at 3.75 mg/L
# Chain of UniProt Q9HD36 (Q9HD36 whole entry, looked up): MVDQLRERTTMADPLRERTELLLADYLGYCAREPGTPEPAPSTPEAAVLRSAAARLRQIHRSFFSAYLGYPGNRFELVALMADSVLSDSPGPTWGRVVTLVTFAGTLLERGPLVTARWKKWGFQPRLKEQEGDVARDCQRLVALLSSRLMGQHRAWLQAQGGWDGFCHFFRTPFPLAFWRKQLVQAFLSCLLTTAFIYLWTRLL
row,Structure (SMILES),displacement [%]
1,COc1cc(NC(=O)c2cccc(OC)c2)cc(OC)c1,-2.1
2,COc1ccc(C(=O)NCC2CCCO2)cc1I (stereo not given),-5.7
3,O=C1C(=O)N(c2nc3ccccc3s2)C(c2ccccc2Cl)/C1=C(/O)c1ccccc1 (stereo not given),5
4,Brc1ccc(N2COc3ccc4ccccc4c3C2)cc1,-1.2
5,CSc1nncn1/N=C/c1ccc(Br)cc1,-0.9
6,O=C(N/N=C\c1cc(Br)cc(I)c1O)c1ccc(Br)cc1,22.1
7,CCN(CC)c1ccc(/C=C2/SC(=O)N(CNc3ccc(F)cc3)C2=O)cc1,-1.1
8,CCOCCOC(=O)c1ccc(NC(=O)COc2cc(C)ccc2C(C)C)cc1,19
9,CN(C)c1ccc(/C=C(/c2ccccc2)c2nc3ccccc3[nH]2)cc1,-11.7
10,COc1cc(CC(=O)O)c(C(C)=O)cc1OC,-1.7
11,COC(=O)C1=C(C)NC2=C(C(=O)c3ccccc32)C1c1ccc(OCc2ccc([N+](=O)[O-])cc2)cc1 (stereo not given),14.5
12,COc1ccc(/C=C2\SC(=S)N(c3cccc(C)c3C)C2=O)cc1OC,10.6
13,CCOC(=O)COc1ccc(/C=c2\sc3nc4ccccc4n3c2=O)cc1,-5.4
14,CCOc1ccc2nc(SCC(=O)c3ccc(C)cc3C)sc2c1,4.9
15,COc1ccc(NC(=O)c2cc3ccccc3oc2=O)c(OC)c1,7.1
16,O=C(c1ccco1)N1CCN(Cc2cccc(F)c2)CC1,3.8
17,CC(=O)c1cccc(NC(=O)CCCOc2ccccc2)c1,-3.2
18,Cc1ccc(-c2[nH]n3c(=O)c4c(nc3c2C)CCCC4)cc1,-2.2
19,Cc1cc(C)nc(NS(=O)(=O)c2ccc(N/C=C\C(=O)c3ccc(Cl)cc3)cc2)n1,28
20,O=C(N/N=C/c1ccc(O)c(O)c1)c1ccc(-c2ccccc2)cc1,-9.7
21,Cc1cc(NC(=O)c2cccc(N(C)C)c2)ccc1Br,14.9
22,O=C(/C=C/c1ccco1)Nc1ccc(C(=O)Nc2cccc(-c3nc4ccccc4o3)c2)cc1,12.3
23,CCCC/C(CC)=N\NC(=O)c1cc([N+](=O)[O-])cc([N+](=O)[O-])c1,7.3
24,CN(C)c1ccc(/C=C2\C(=O)NC(=O)N(c3ccc(Cl)cc3)C2=O)cc1Br,10.5

row,Structure (SMILES),displacement [%]
1,C=C(C)c1cccc(C(C)(C)NC(=O)Nc2ccc(I)cc2)c1,-4.5
2,CC(O)CNC(=O)C1CC(=O)N(c2ccc(Br)cc2)C1 (stereo not given),10.9
3,COC(=O)c1cc(O)cc(S(=O)(=O)c2ccc(C)cc2)c1O,5.8
4,O=C(Nc1ccc2c3c(cccc13)CC2)c1ccccc1I,-7.9
5,Cc1n[nH]c(C)c1Sc1ccccc1N=Cc1ccc(Cl)cc1Cl,6.2
6,Cc1cc(C(=O)Nc2cccc(C(=O)O)c2)c(C)o1,-1.1
7,O=c1[nH]c(SCCc2ccccc2)nc2ccccc12,-0.6
8,C=CCNCC(=O)Nc1sc2c(c1C(=O)OCC)CCCC2,10.8
9,COc1ccc(CSc2n[nH]c(-c3ccc(OC)cc3)n2)cc1,4.6
10,Cc1cccc(Nc2ccc([N+](=O)[O-])c3nonc23)c1,1.8
11,N#C/C(=C\c1ccc(-c2ccc(Cl)c(C(=O)O)c2)o1)C(=O)NCC1CCCO1 (stereo not given),-20.9
12,COc1ccc(-n2c(C)ccc2-c2ccccc2)cc1,-12.8
13,Cc1cccc(OCC(=O)NNC(=O)c2ccccc2C)c1,-8
14,COC(=O)Cn1cnc2ccccc2c1=O,0.1
15,O=C(Nc1ccc2c(c1)OCCO2)c1ccc(Br)o1,10
16,CCOC(=O)c1c(NC(=O)C2C3CCC(O3)C2C(=O)O)sc2c1CCCC2 (stereo not given),-11
17,O=C1CC(N2CCN(c3ccc(F)cc3)CC2)C(=O)N1c1cc(Cl)cc(Cl)c1 (stereo not given),8.7
18,O=[N+]([O-])c1ccc(C2Nc3c(I)cccc3C3C=CCC32)cc1 (stereo not given),-0.6
19,Cc1ccc(S(=O)(=O)Nc2ccccc2C(=O)Nc2cccc3c2C(=O)c2ccccc2C3=O)cc1,14.7
20,Cc1nc(NC(=O)C2C3CCC(O3)C2C(=O)O)sc1-c1ccccc1 (stereo not given),-10.9
21,Cc1cc(/C=N/NC(N)=S)c(C)n1-c1cccc(Cl)c1,-22.7
22,O=C(Nc1ccc(-c2nc3cc(Cl)cc(Cl)c3o2)cc1)c1cccc([N+](=O)[O-])c1,62.7
23,COc1cccc(C2/C(=C(\O)c3ccccc3)C(=O)C(=O)N2CCCCCC(=O)O)c1 (stereo not given),-10.4
24,O=C(NCc1ccc(Cl)cc1)C(=O)NC1CCCCC1,10.3

row,Structure (SMILES),displacement [%]
1,O=S1(=O)CCC(NS(=O)(=O)c2ccc(F)cc2)C1 (stereo not given),-2.9
2,Cc1cccc(NC(=O)CN(c2ccc(F)cc2)S(=O)(=O)c2ccccc2)c1,-1.3
3,COc1ccc(O)c(-c2cc(-c3ccccc3C)[nH]n2)c1,4.1
4,Cc1ccc(OCC(=O)O/N=C(\N)c2ccc(Cl)cc2)c(Br)c1,5.9
5,COC(=O)CN1C(=O)/C(=C/c2ccc(OCc3ccc(Cl)cc3)c(OC)c2)SC1=S,87.2
6,CCOC(=O)c1c(NC(=O)C2COc3ccccc3O2)sc2c1CCC(C)C2 (stereo not given),5
7,CN1C(=O)/C(=C2\SC(=Nc3ccc(F)cc3)NC2=O)c2ccccc21,17.8
8,CCOc1ccc(-c2csc(-c3cc4ccccc4oc3=O)n2)cc1,-2.8
9,CC1CCCC(C)C1NC1=C(Cl)C(=O)c2ccccc2C1=O (stereo not given),9.6
10,CCN(CC)C(=O)CSc1nc(O)c(Cc2ccccc2)c(=O)n1-c1ccc(OC)cc1,8.7
11,Cc1ccc(C2CC(C(F)(F)F)n3nc(C(=O)N4CCN(c5ccc(F)cc5)CC4)c(Cl)c3N2)cc1 (stereo not given),0.7
12,Cc1cc(C)cc(NC(=O)CN(c2ccc(Cl)cc2)S(C)(=O)=O)c1,7.8
13,CC(C)(C)c1ccc(OC(=O)c2cccs2)cc1,-8.4
14,CC1CN(C2CCCCC2)CCC1(O)c1ccccc1 (stereo not given),-8.9
15,Cc1cc(=O)n2cc(Br)ccc2n1,0.1
16,CCOc1cccc(C(=O)Nc2cc3nn(-c4ccc(C)cc4)nc3cc2C)c1,13.2
17,Cc1ccc(NC(=O)c2nc[nH]c2C(=O)N2CCCCC2)c(C(=O)c2ccccc2)c1,-6.4
18,O=C(Nc1cc(C(=O)Nc2ccc(Cl)cc2)cc(C(=O)Nc2ccc(Cl)cc2)c1)c1ccc([N+](=O)[O-])cc1,3.3
19,CCOC(=O)CSc1nc2sc3c(c2c(=O)n1-c1ccccc1)CCCCC3,-2.7
20,COc1ccc(Br)cc1/C=C/C(=O)Nc1ccc(Cl)cn1,13.4
21,CC(C)c1ccc(NC(=O)c2cccc(F)c2)cc1,-4.5
22,O=S1(=O)N=C(SCCO)c2ccccc21,-0.3
